Among all 200,000 compounds or so, about 4,500 (2.2%) were called active. This list was built around the results that the source calls inconclusive (neither active nor inactive); the mix of calls is not that of the screen. The call rests on the fitted dose curve; in most records, active means well fitted inhibition curve with a large enough effect; inconclusive means small, poorly fitted or top-dose-only effect, or effect the other way; inactive means flat fitted curve, though single readings scatter. Where the call is inconclusive, the potency comes from a doubtful curve fit.
What follows are compounds tested against Cruzipain (Trypanosoma cruzi) (UniProt P25779) (assay: qHTS Assay for Promiscuous and Specific Inhibitors of Cruzain (without detergent)). Details: purified cruzain, Z-FR-AMC fluorescence, no detergent.
Sequence of UniProt P25779 (P25779 whole entry, looked up): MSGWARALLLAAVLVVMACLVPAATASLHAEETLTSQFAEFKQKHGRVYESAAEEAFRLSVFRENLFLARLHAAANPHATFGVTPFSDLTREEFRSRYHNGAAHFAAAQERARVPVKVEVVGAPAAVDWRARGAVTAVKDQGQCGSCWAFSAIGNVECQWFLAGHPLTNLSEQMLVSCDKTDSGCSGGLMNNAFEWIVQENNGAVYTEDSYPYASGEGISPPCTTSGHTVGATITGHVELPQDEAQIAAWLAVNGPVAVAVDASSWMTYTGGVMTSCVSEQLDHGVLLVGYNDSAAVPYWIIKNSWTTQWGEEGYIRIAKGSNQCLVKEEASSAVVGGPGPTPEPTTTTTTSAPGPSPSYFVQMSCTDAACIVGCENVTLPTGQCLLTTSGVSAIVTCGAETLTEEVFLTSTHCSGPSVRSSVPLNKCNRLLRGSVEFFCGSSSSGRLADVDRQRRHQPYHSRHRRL
How it was run: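 Purified cruzain at 1.5 nM, pre-incubated 15 min with compound at room temperature in 100 mM sodium acetate pH 5.5, 5 mM DTT, 0.00005% Triton X-100. Reaction started with 2 uM Z-FR-AMC; AMC fluorescence increase over 60 s gives rate.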
Further: nearly all actives have a fitted effect of over 40% in size.
Potency means the concentration at half of the fitted maximal effect; tags describe the fitted curve by direction and shape.
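Wherever max response, negative = inhibition is given: plate controls were enzyme without inhibitor for no effect and buffer without enzyme for full effect.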

| SMILES | Potency | max response, negative = inhibition |
| --- | --- | --- |
| O=C(Cc1cccc2ccccc12)Nc1ccc2oc(-c3ccccc3)nc2c1 | inconclusive: 31.6 µM [inhibitor, single point] | – |
| O=C(OCC(=O)N1CCN(C(=O)c2ccco2)CC1)c1ccccc1OCc1ccc(Cl)cc1 | inconclusive: 39.8 µM [activator, single point] | – |
| O=C(NCCc1ccccc1)c1ccc2c(c1)N(Cc1ccccc1)C(=O)c1ccccc1S2(=O)=O | active: 20 µM | – |
| O=C1CCCC=C1[C@@H](O)CCOC(c1ccccc1)(c1ccccc1)c1ccccc1 | – | inactive: 1.73% |
| Cc1ccc(Cl)cc1N1CCN(C(=O)c2ccc3c(c2)CCN3S(=O)(=O)c2ccccc2)CC1 | inconclusive: 25.1 µM [inhibitor, single point] | – |
| CC1CCN(S(=O)(=O)c2ccc3c(c2)c(=O)c(C(=O)NC(C)c2ccccc2)cn3C)CC1 (stereo unspecified) | inconclusive: 20 µM [activator, partial curve] | – |
| O=C(NCc1ccccc1Cl)c1ccc2c(c1)N(Cc1ccccc1)C(=O)CS2 | inconclusive: 25.1 µM [inhibitor, single point] | – |
| COc1ccc(CCNC(=O)CN2CCN(c3cccc(C(F)(F)F)c3)CC2)cc1 | inconclusive: 25.1 µM [activator, partial curve] | – |
| CC(C)CSc1nc2c(c(=O)[nH]c(=O)n2C)n1CC(O)COc1cccc2ccccc12 (stereo unspecified) | inconclusive: 15.8 µM [activator, partial curve] | – |
| O=c1c2ccccc2nc2n1CCN2 | – | inactive: -9.83% |
| O=C(Nc1ccccc1)c1ccc(OC(=O)c2cc3ccccc3o2)cc1 | active: 12.6 µM | – |
| O=C(NCc1cccs1)O[C@H]1C[C@H]2CC[C@@H]1C2 | – | inactive: -0.695% |
| Cc1cc(N2CCN(C(=O)c3ccco3)CC2)n2nc(C)c(-c3ccccc3)c2n1 | inconclusive: 39.8 µM [activator, single point] | – |
| Cc1cc(=O)n2cc(-c3ccccc3)nc2[nH]1 | inconclusive: 25.1 µM [activator, single point] | – |
| Cc1ccc(-c2nnn(CC(=O)N(c3ccccc3F)C(C(=O)NCC3CCCO3)c3c[nH]c4ccccc34)n2)cc1 (stereo unspecified) | inconclusive: 12.6 µM [activator, partial curve] | – |
| COc1cccc(NC(=O)CCc2c(C)nc3nc(CNC(=O)c4cccc(F)c4)nn3c2C)c1 | inconclusive: 39.8 µM [activator, single point] | – |
| O=C(CSc1nc(-c2ccco2)cc(C(F)(F)F)n1)Nc1ccc(C(=O)N2CCOCC2)cc1 | inconclusive: 39.8 µM [activator, single point] | – |
| CC(=O)N1CCC2(CCCN(c3ccc(-c4ccccc4)cc3)C2)CC1 | inconclusive: 31.6 µM [activator, partial curve] | – |
| COc1cccc2c(C)nc(Nc3nc(CSc4nnc(C)s4)cc(=O)[nH]3)nc12 | inconclusive: 39.8 µM [activator, single point] | – |
| CCc1ccc(CN2CCc3nc(N4CCN(c5ccccc5F)CC4)ncc3C2)cc1 | – | inactive: 3.19% |
| O=C(c1cc(-c2ccncc2)nc2ccc(Br)cc12)N1CCN(c2ccccn2)CC1 | inconclusive: 25.1 µM [activator, single point] | – |

| SMILES | Potency | max response, negative = inhibition |
| --- | --- | --- |
| CCCN(CCC)CCCNC(=O)c1cc2cc3ccc(OC)cc3nc2o1 | inconclusive: 39.8 µM [inhibitor, single point] | – |
| Cc1nc(C)c(NC(=O)N2CCc3ccccc32)cc1NC(=O)N1CCc2ccccc21 | inconclusive: 31.6 µM [activator, single point] | – |
| CCCOc1ccc(/C=N/NC(=S)Nc2ccccc2[N+](=O)[O-])c(O)c1 | active: 3.98 µM | – |
| CCOC(=O)C1=C(C)C2C3C(=O)N(c4ccc(C)cc4C)C(=O)C3C1(C)C1C(=O)N(c3ccc(C)cc3C)C(=O)C21 (stereo unspecified) | inconclusive: 25.1 µM [activator, partial curve] | – |
| COc1ccc(CCNC(=O)c2cnn(-c3cccc(C)c3)c2C2CCN(C(=O)OC(C)(C)C)CC2)cc1OC | inconclusive: 39.8 µM [activator, single point] | – |
| CCOC(=O)C(NCCCCl)c1ccccc1 (stereo unspecified) | – | inactive: -0.0076% |
| CCOC(=O)c1sc2ccccc2c1S(=O)(=O)N1CCN(c2cccc(C)c2)C(C)C1 (stereo unspecified) | inconclusive: 39.8 µM [inhibitor, single point] | – |
| O=C(Cn1c(=O)nc(-c2ccccc2)c2cc(Cl)ccc21)N1CCN(c2ccccc2F)CC1 | – | inactive: -4.09% |
| Cc1c(C(=O)OCC(=O)c2ccc3c(c2)OCCO3)oc2ccccc12 | inconclusive: 31.6 µM [inhibitor, single point] | – |
| Cc1cc(-c2[nH]nc3c2C(c2ccc(Cl)cc2)C(C#N)=C(N)O3)c(C)s1 (stereo unspecified) | inconclusive: 31.6 µM [inhibitor, partial curve, poor fit] | – |
| CCC(C)C(=O)O[C@@H]1C[C@@]2(C)C(c3ccoc3)OC(=O)CC23OC2(C)O[C@@]14[C@@]1(C)C(CC(=O)OC)C5(C)CC1(O)C(O)(C5OC(=O)C1(C)OC1C)C(OC(C)=O)[C@@]34O2 (stereo partly specified) | inconclusive: 3.98 µM [activator, full curve] | – |
| Cc1ccc(CNc2nc(-c3ccco3)nn2S(=O)(=O)c2ccc3ccccc3c2)cc1 | inconclusive: 39.8 µM [inhibitor, single point] | – |
| CC(=O)NCCn1c(SCc2ccccc2C)nc2ccccc2c1=O | inconclusive: 31.6 µM [activator, single point] | – |
| O=C(CSc1ncc(-c2ccccc2)[nH]1)Nc1ccc(Cl)cc1 | – | inactive: -11.7% |
| Cc1ccc(C(=O)CN2/C(=C(\O)c3ccccc3)C(=O)c3ccccc3S2(=O)=O)c(C)c1 | active: 25.1 µM | – |
| Cc1c(C)n(Cc2ccc(F)cc2)c2ccc(C(=O)NCc3ccco3)cc12 | – | inactive: 6.72% |
| CCOC(=O)C(C)CC(C)C(=O)N1CCOCCOCCN(C(=O)C(C)CC(C)C(=O)OCC)CCOCC1 (stereo unspecified) | inconclusive: 25.1 µM [activator, partial curve] | – |
| Cc1snc(SCC(=O)N/N=C(\N)COc2ccc(F)cc2)c1C#N | inconclusive: 39.8 µM [inhibitor, single point] | – |
| Cc1cc(N2CCN(C)CC2)nc2ccc(NC(=O)Nc3cccc(Cl)c3)cc12 | – | inactive: 4.15% |
| Cc1ccc(C(=O)c2no[n+]([O-])c2C(=O)c2ccc(C)cc2)cc1 | active: 25.1 µM | – |
| COc1ccc(C(=O)NNC(=O)CSc2nnc(COc3ccc4ccccc4c3)n2C)cc1 | inconclusive: 25.1 µM [inhibitor, single point] | – |

| SMILES | Potency | max response, negative = inhibition |
| --- | --- | --- |
| COC(=O)[C@@]1(Cc2ccccc2)[C@H]2c3cc(C(=O)N(C)C)n(Cc4ccccn4)c3C[C@H]2CN1C(=O)c1ccccc1 | inconclusive: 25.1 µM [activator, partial curve] | – |
| O=C1C=C(O)CC(c2ccc(Cl)cc2)C1 (stereo unspecified) | inconclusive: 31.6 µM [inhibitor, single point] | – |
| CCCCN(CCCNC(=O)CN1N=C(c2ccc(C)cc2)CCC1=O)c1ccccc1 | inconclusive: 25.1 µM [activator, single point] | – |
| Cc1ccc(NC2=C/C(=N/S(=O)(=O)c3cccs3)c3ccccc3C2=O)cc1 | inconclusive: 39.8 µM [inhibitor, single point] | – |
| COc1cccc(NC(=O)CCc2nc3c(C)nn(-c4ccc(C)cc4)c3n(C)c2=O)c1 | – | inactive: 10.1% |
| COCCCNC(=O)c1cnc2sc(N3CCCCCC3)nn2c1=O | – | inactive: 2.41% |
| Cc1ccccc1Nc1sc(C(=O)Nc2cccc(Cl)c2)c(N)c1C(N)=O | inconclusive: 39.8 µM [inhibitor, single point] | – |
| COC(=O)C/C=C/[C@@H](C)[C@@H](/C=N/OC[C@@H](C)[C@H](OCc1ccccc1)C(C)C)NS(=O)(=O)c1ccc(C)cc1 | inconclusive: 39.8 µM [activator, single point] | – |
| CC1CCCCN1C(=O)Cn1ncc2c3ccccc3n(Cc3ccccc3F)c2c1=O (stereo unspecified) | – | inactive: -0.504% |
| CCCn1c(SCC(=O)c2cc(OC)ccc2OC)nnc1-c1ccco1 | inconclusive: 39.8 µM [activator, single point] | – |
| CCOC(=O)c1c(NC(=S)Nc2cccc(C)c2)sc2c1CC(C)(C)SC2 | active: 20 µM | – |
| COc1ccc(NC(=O)C(NC(=O)Cc2cccs2)c2ccccc2)cc1 (stereo unspecified) | inconclusive: 7.94 µM [inhibitor, single point] | – |
| Cc1ccc(NC(=O)Cn2c(=O)oc3cc(S(=O)(=O)N4CCCCC4)ccc32)c(Cl)c1 | – | inactive: 5.34% |
| Cc1ccc(OCC(=O)NC(=S)Nc2cccc(NC(=O)c3ccc(Cl)cc3Cl)c2)cc1 | inconclusive: 39.8 µM [inhibitor, single point] | – |
| CCc1ccc(NC(=O)CSc2nc3ccccc3c(=O)n2CCCC(=O)N2CCCC2)cc1 | inconclusive: 31.6 µM [activator, partial curve] | – |
| COCCNC(=O)Cn1c(=O)n(CCCCCC(=O)NCc2ccccc2Cl)c(=O)c2sccc21 | – | inactive: 14.2% |
| COC(=O)c1cc(OC)c(OC)cc1NC(=O)CSc1nnnn1Cc1ccccc1 | inconclusive: 31.6 µM [activator, single point] | – |
| COc1ccc(-c2nc(C)c(CCNC(=O)c3cccs3)s2)cc1OC | inconclusive: 39.8 µM [activator, single point] | – |
| CCn1c2ccccc2c2cc(NC(=O)COC(=O)c3cc(OC)c(OC)cc3OC)ccc21 | inconclusive: 20 µM [activator, single point] | – |

Reference: PubChem BioAssay AID1476 (National Center for Advancing Translational Sciences (NCATS), 2009)
